Data on 2 molecules can be found in patent publication US20240301031A1 (JIANGSU HENGRUI PHARMACEUTICALS, published 2024).

For experiment [1], the target named is T1, human APRIL (5860-AP-010/CF, R&D Systems) (human, UniProt O75888 115-250, limits assumed).
T1 construct: Bought protein
T1 sequence (looked up): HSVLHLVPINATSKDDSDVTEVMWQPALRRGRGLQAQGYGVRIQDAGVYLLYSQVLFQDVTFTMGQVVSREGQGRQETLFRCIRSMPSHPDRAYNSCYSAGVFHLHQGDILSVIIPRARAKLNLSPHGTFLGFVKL
The experiment in a line: SPR (Biacore), sample captured on Protein A, antigen flowed, 1:1 fit. As to the method: (§1) A certain amount of test sample was subjected to affinity capture by a biosensor chip Protein A (GE, 29127556), then antigens at a series of concentration gradients were allowed to flow on the surface of the chip. The reaction signals were detected in real time by using Biacore (GE, 8K) to obtain association and dissociation curves. After the dissociation was completed for each cycle, the biochip was washed and regenerated with a 10 mM glycine-hydrochloric acid solution at pH 1.5 (GE, BR-1003-54). The experimental data were fitted using BIAevaluation version 4.1, GE software with a 1:1 model to obtain affinity values. The related antigen proteins used in this assay are as follows: human IL-23 (CT048-H08H, Sino biological), human IL-12 (CT050-H08H, Sino biological), human BAFF (10056-HNCH, Sino biological), human APRIL (5860-AP-010/CF, R&D Systems), cynomolgus monkey p40 (10215-CL, R&D Systems), cynomolgus monkey BAFF (BAF-CM412B, Kactus), cynomolgus monkey APRIL (APR-CM410B, Kactus), mouse BAFF (BAF-M521y, Acro Biosystems), and mouse APRIL (7907-AP/CF, R&D Systems).

Experiment [2] deals with T2, human IL-23 (CT048-H08H, Sino biological) (human, UniProt Q9NPF7 20-189; P29460 23-328).
T2 construct: Bought heterodimer
T2 sequence (looked up) 1: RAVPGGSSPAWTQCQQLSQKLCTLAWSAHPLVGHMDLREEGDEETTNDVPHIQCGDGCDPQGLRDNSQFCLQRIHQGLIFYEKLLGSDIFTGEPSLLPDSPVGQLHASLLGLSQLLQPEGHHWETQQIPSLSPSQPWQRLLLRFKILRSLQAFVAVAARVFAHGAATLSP
T2 sequence (looked up) 2: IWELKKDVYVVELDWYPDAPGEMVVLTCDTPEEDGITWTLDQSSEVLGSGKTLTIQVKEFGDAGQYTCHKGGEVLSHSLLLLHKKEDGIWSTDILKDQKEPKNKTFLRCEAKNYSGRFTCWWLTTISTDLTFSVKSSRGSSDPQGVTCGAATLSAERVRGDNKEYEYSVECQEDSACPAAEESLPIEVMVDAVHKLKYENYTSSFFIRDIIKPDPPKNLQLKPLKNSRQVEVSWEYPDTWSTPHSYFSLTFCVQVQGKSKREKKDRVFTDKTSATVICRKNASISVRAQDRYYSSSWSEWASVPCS
The description is as above. The procedure:
as §1

For experiment [3], the target named is T3, mouse BAFF (BAF-M521y, Acro Biosystems) (mouse, UniProt Q9WU72 127-309).
T3 construct: Bought protein
T3 sequence (Q9WU72 127-309 limits assumed): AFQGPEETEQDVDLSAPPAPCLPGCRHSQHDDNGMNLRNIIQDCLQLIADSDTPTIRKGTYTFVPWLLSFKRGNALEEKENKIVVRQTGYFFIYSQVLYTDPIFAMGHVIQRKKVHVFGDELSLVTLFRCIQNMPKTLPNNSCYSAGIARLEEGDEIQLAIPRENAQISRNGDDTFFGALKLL
The experiment is described as above. As to the method: as §1

The target in experiment [4] is BAFF (R&D Systems, 7537-BF) (UniProt Q9Y275 partial chain). The experiment in a line: cell-based or functional assay.
UniProt Q9Y275, sequence (Q9Y275 134-285 limits assumed): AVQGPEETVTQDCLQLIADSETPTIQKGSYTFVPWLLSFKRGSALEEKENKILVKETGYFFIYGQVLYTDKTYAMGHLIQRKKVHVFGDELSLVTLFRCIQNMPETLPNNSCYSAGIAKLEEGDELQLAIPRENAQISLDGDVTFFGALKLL
Experiment [5] deals with T4, IL-12/23 p40 (Sino biological, 10052-H08H) (UniProt P29460 23-328).
T4 construct: Bought protein
T4 sequence (looked up): T2 sequence (looked up) 2
The experiment in a line: ELISA, IL-12/23 p40 coated, sample titrated. As to the method: The binding activity of the antibodies or fusion proteins for BAFF, APRIL, and IL-12/23 p40 was assayed by the ELISA method (coating an antigen protein). The specific procedures were as follows:
A BAFF (Sino biological, 10056-HNCH), APRIL (R&D Systems, 5860-AP-010/CF), or IL-12/23 p40 (Sino biological, 10052-H08H) protein was diluted to 1 μg/mL with a PBS (BasalMedia, B320) buffer at pH 7.4, and added to a 96-well microplate (Corning, 3590) at 100 μL/well. The plate was incubated at 4° C. overnight. After the liquid was discarded, 300 μL of 5% skim milk (BD, 232100) diluted with PBS was added to each well for blocking, and the plate was incubated at 37° C. for 2 h. After the blocking was completed, the blocking solution was discarded, and the plate was washed 3 times with a PBST buffer (PBS at pH 7.4 containing 0.1% tween-20). 100 μL of test antibody or fusion protein solution diluted in a gradient was added to each well, and the plate was incubated at 37° C. for 1 h. After the incubation was completed, the plate was washed 3 times with PBST. […] The plate was washed 3 times with PBST. […] The plate was read for absorbance values at 450 nm on a microplate reader, the binding curves of the antibodies to an antigen were fitted with software, and the EC₅₀ values were calculated.
(In general: In an ELISA, binding on a coated surface is turned into a signal by an enzyme label.)

B1: TACI-Mab1 (other)
heavy: EVQLVQSGAEVKKPGESLKISCKGSGYSFTTYWLGWVRQMPGKGLDWIGIMSPVDSDIRYSPSFQGQVTMSVDKSITTAYLQWNSLKASDTAMYYCARRRPGQGYFDFWGQGTLVTVSS[omitted - human IgG1 constant region]GGSSTSCREEQGEFYDHLLRDCISCASICGQHPKQCAAFCENK
light: [omitted - about 200 residues]
notes: also called TACI antibody fusion protein
In general, Kd refers to the free concentration of one partner at which half of the binding sites on the other are occupied at equilibrium, for simple one-to-one binding. One may read the koff as the first-order rate constant of dissociation. A high value points to a short-lived complex. What is called kon is the second-order rate constant of association. Lower therefore signals slow association. By EC50 is commonly meant the concentration needed to bring the measured effect to its halfway point. Higher therefore signals a less potent agent. Consider B1, for which, in experiment [1], the affinity, expressed as Kd, was 22.9 pM; the koff amounted to 0.000488 s⁻¹; the kon amounted to 2.14e+07 M⁻¹ s⁻¹. In experiment [2], this molecule came in with a Kd of 71 pM, a koff of 8.83e-05 s⁻¹ and a kon of 1.24e+06 M⁻¹ s⁻¹. Further, in experiment [3], binding was put at a Kd of 74.9 pM, the koff came out at 9.53e-05 s⁻¹ and the kon came to 1.27e+06 M⁻¹ s⁻¹. Besides, the “IC50 (nM) for the inhibition of the BAFF-induced B cell proliferation” value in experiment [4] came to 0.0672 nM. The molecule also showed a concentration giving a half-maximal response (EC50) in experiment [5] of 619 pM.

B2: TACI-Mab2 (other)
heavy: B1 heavy
light: STSCREEQGEFYDHLLRDCISCASICGQHPKQCAAFCENKLGGGGSGGGGSGGGGS[omitted - about 200 residues]
notes: as for B1
In experiment [1], B2 returned an equilibrium dissociation constant (Kd) of 14.8 pM, a koff of 0.000172 s⁻¹ and a kon of 1.16e+07 M⁻¹ s⁻¹. Moreover, in experiment [2], the Kd is 90 pM, the koff was 0.000103 s⁻¹ and the kon was found to be 1.14e+06 M⁻¹ s⁻¹. In experiment [3], the Kd came out at 32.6 pM, the koff was determined as 6.56e-05 s⁻¹ and the kon was 2.01e+06 M⁻¹ s⁻¹. For the same molecule, the “IC50 (nM) for the inhibition of the BAFF-induced B cell proliferation” value in experiment [4] was found to be 0.0571 nM. The molecule further showed an EC50 in experiment [5] of 542 pM.
